For test [1], the target named is B23 1-160, purified recombinant (human) (UniProt P06748). As to the kind of experiment: pull-down; purified His-tagged B23.1, B23.2 or B23 1-160 (50 ug) coupled to CNBr-activated Sepharose; extracts of Ad2-infected HeLa cells (18 h post-infection, sonicated in PBS/1 % NP-40) passed over; PBS washes; elution in SDS loading buffer; Western blot for pTP or DBP; only the target purified. (In general: Immunoblotting shows a protein as a band on a membrane.)

The target of test [2] is Adenovirus preterminal protein (pTP), baculovirus-expressed, purified (UniProt P03269). As to the kind of experiment: co-IP; mixture containing only recombinant B23.1 and pTP; anti-B23.1 or anti-pTP antibody with protein G-agarose; Western blot for B23.1; both purified.
Test [3] addresses Nucleolar protein B23.1, His6-tagged, recombinant (human) (UniProt P06748). As to the kind of experiment: pull-down; purified His-tagged B23.1, B23.2 or B23 1-160 (50 ug) coupled to CNBr-activated Sepharose; extracts of Ad2-infected HeLa cells (18 h post-infection, sonicated in PBS/1 % NP-40) passed over; PBS washes; elution in SDS loading buffer; Western blot for pTP or DBP; only the target purified.

Test [4] addresses Nucleolar protein B23.2, His6-tagged, recombinant (human) (UniProt P06748). Described as above.
Test [5] addresses Adenovirus preterminal protein (pTP), baculovirus-expressed, purified (UniProt P03269). Put plainly: pull-down; reverse pull-down: purified baculovirus-expressed pTP or DBP immobilised on Sepharose columns; uninfected HeLa cell lysates; Western blot with anti-B23.1 (Fig. 1c); only the target purified.

These are yes or no findings as the source states them, for the method shown. For part of these data: In cells and extracts the contact can be indirect. Some entries that bind do so weakly or less than the wild type.

On to “Adenovirus DNA-binding protein (DBP) from Ad2-infected HeLa cells (from UniProt P03264 1-529)”, for which, in test [1], the binding result was “binds”. As to “Nucleolar protein B23.1, His6-tagged, recombinant (from UniProt P06748 1-294)”, the binding entry in test [2] is “binds”. Regarding “Adenovirus preterminal protein (pTP) from Ad2-infected HeLa cells (from UniProt P03269 1-671)”, the binding entry was “binds” in test [3], “no binding” in test [4] and “binds” in test [1].

As for “Endogenous B23.1 of uninfected HeLa cells (from UniProt P06748 1-294)”, the binding result in test [5] is recorded as “binds”.

These data come from article PMC2884980.
